In patent US20230192818A1 (TWIST BIOSCIENCE, published 2023):

What was measured:
Delta spike trimer = Delta spike trimer (SARS-CoV-2)
Omicron spike trimer = Omicron spike trimer (SARS-CoV-2)

B1: Antibody 813 (bispecific antibody)
chain: EVQLVESGGGLVQPGGSLRLSCAASGFTFSPSWMGWFRQAPGKEREFVATINEYGGRNYADSVKGRFTISADNSKNTAYLQMNSLKPEDTAVYYCARVDRDFDYWGQGTLVTVSSGGGGS[human IgG1 Fc with C220S (EU numbers) not listed]GGGSGGGGSASEVQLVESGGGLVQPGGSLRLSCAASGSTFSINAMGWFRQAPGKEREFVAGITSSGGYTNYADSVKGRFTISADNSKNTAYLQMNSLKPEDTAVYYCAADGVPEYSDYASGPVWGQGTLVTVSS
IC50 (Delta spike trimer): 8.8 nM | IC50 (Omicron spike trimer): 9.04 nM
